This passage reports binding results from paper PMC2702275, “TIPT2 and geminin interact with basal transcription factors to synergize in transcriptional regulation”.

Protein sequences, listed by entry. Tags and fused reporters are not part of them.
UniProt Q9CQJ4: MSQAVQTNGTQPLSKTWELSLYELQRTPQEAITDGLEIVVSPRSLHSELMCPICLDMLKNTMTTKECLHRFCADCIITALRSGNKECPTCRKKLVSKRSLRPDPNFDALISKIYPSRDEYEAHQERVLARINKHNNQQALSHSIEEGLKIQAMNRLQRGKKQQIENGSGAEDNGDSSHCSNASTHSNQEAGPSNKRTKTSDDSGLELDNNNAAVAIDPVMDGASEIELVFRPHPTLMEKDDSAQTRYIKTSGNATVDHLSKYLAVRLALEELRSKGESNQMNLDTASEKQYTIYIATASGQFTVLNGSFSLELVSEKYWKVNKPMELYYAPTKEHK
UniProt Q8K214: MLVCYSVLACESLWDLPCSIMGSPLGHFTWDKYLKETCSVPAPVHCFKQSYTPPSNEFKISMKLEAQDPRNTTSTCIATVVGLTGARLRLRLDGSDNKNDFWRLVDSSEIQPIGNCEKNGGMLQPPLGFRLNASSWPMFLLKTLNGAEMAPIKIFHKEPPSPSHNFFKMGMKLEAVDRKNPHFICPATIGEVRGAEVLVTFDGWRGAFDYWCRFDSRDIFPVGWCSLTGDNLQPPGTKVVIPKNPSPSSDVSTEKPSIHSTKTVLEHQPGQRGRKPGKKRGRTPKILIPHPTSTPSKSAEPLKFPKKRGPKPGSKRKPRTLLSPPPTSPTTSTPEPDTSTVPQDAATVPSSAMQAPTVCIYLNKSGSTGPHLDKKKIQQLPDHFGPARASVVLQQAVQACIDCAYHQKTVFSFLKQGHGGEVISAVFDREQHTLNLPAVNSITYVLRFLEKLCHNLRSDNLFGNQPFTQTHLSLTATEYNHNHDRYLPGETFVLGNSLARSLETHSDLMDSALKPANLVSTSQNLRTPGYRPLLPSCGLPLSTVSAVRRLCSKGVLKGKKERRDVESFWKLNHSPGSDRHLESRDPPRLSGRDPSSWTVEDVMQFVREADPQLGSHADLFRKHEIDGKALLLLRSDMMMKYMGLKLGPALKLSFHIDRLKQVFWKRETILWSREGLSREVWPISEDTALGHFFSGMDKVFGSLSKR
UniProt Q00403: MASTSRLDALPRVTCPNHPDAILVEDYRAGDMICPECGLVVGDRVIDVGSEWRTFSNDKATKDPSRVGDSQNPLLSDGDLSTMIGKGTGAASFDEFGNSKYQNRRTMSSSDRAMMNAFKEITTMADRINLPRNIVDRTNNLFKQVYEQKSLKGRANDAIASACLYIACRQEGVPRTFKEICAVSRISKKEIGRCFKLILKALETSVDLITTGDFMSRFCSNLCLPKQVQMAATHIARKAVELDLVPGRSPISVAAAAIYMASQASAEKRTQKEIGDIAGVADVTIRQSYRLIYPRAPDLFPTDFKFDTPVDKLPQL

For one assay, the target named is T1, HA-TIPT2 (mouse) (UniProt Q6P926).
T1 sequence: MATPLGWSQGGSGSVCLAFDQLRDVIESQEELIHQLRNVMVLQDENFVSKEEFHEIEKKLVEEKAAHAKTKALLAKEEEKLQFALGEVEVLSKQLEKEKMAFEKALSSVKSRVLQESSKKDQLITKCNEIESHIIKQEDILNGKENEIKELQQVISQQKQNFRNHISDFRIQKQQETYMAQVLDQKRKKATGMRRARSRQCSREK
Kind of assay: co-IP; anti-HA affinity matrix, extracts of U2OS clone stably producing HA-TIPT2 (HA-TIPT8) and of untransfected U2OS cells; 4°C.

In assay [1] the target is T2, GST-TIPT2 (TATA-binding protein-like factor-interacting protein, isoform 2) (mouse) (UniProt Q6P926).
T2 sequence: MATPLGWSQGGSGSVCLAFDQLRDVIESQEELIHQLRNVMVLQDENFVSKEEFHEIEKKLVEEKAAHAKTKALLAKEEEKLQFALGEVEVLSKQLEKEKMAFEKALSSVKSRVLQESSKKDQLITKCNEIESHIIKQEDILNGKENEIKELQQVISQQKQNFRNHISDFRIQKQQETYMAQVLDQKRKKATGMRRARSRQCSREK
Kind of assay: pull-down; GST fusion bait on Glutathione Sepharose-4B beads, prey endogenous protein of human U2OS whole cell extract; 1 hour at 4°C in binding buffer, Western blot; only the target purified. (In western blotting, separated proteins are transferred to a membrane and probed.)

Assay [2] concerns the target T3, GST-geminin (UniProt O88513).
T3 sequence: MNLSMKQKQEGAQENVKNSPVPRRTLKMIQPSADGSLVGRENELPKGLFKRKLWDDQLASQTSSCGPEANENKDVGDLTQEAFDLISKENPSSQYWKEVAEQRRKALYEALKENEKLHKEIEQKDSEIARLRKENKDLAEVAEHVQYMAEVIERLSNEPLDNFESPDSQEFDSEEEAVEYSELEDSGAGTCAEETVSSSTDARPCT
The description is as above.

Assay [3] concerns the target T2, GST-TIPT2 (TATA-binding protein-like factor-interacting protein, isoform 2) (mouse). Kind of assay: pull-down; GST fusion bait on Glutathione Sepharose-4B beads, prey in vitro transcribed/translated radioactive protein; 1 hour at 4°C in binding buffer (20 mM Tris pH 7.5, 100 mM NaCl, 1 mM EDTA, 0,1% NP-40), washes up to 150 mM NaCl; only the target purified.
Assay [4] addresses T3, GST-geminin. The description is as above.
In assay [5] the target is T2, GST-TIPT2 (TATA-binding protein-like factor-interacting protein, isoform 2) (mouse). Kind of assay: pull-down; GST fusion bait on Glutathione Sepharose-4B beads, prey endogenous proteins of adult mouse testis extract; 1 hour at 4°C in binding buffer, Western blot; only the target purified.
In assay [6] the target is T3, GST-geminin. Described as above.

No constants are given. Whether binding was seen depends on the method and setting. In cells and extracts the contact can be indirect. Some entries that bind do so weakly or less than the wild type. Where a sequence is shown, tags or fusion partners need not be part of it.

Consider “endogenous TBP from human U2OS cells (from UniProt P20226 1-339)”, for which the binding result (in the assay with HA-TIPT2 (mouse); in assay [1]; with GST-geminin [2]) was “binds” each time. On to “in vitro translated Ring1B (from UniProt Q9CQJ4 1-336)”, for which, in assay [3], the binding result is recorded as “binds”. Consider “in vitro translated Scmh1 (from UniProt Q8K214 1-706)”, for which, in assay [3], the binding result is recorded as “binds”. Regarding “in vitro translated TBP (TATA box binding protein) (from UniProt P20226 1-339)”, the binding entry (in assay [3]; with GST-geminin [4]) was “binds” in each case. For the molecule “in vitro translated TFIIB (from UniProt Q00403 1-316)”, the binding result is “binds” in assay [3] and “no binding” with GST-geminin [4].

B1: endogenous TBP from adult mouse testis extract (protein, UniProt P29037 1-316)
chain: MDQNNSLPPYAQGLASPQGAMTPGIPIFSPMMPYGTGLTPQPIQNTNSLSILEEQQRQQQQQQQQQQQQQAVATAAASVQQSTSQQPTQGASGQTPQLFHSQTLTTAPLPGTTPLYPSPMTPMTPITPATPASESSGIVPQLQNIVSTVNLGCKLDLKTIALRARNAEYNPKRFAAVIMRIREPRTTALIFSSGKMVCTGAKSEEQSRLAARKYARVVQKLGFPAKFLDFKIQNMVGSCDVKFPIRLEGLVLTHQQFSSYEPELFPGLIYRMIKPRIVLLIFVSGKVVLTGAKVRAEIYEAFENIYPILKGFRKTT
For the molecule B1, the binding result (in assay [5]; with GST-geminin [6]) was “binds” each time.

B2: in vitro translated Mel18 (protein, UniProt P23798 1-342)
chain: MHRTTRIKITELNPHLMCALCGGYFIDATTIVECLHSFCKTCIVRYLETNKYCPMCDVQVHKTRPLLSIRSDKTLQDIVYKLVPGLFKDEMKRRRDFYAAYPLTEVPNGSNEDRGEVLEQEKGALGDDEIVSLSIEFYEGVRDREEKKNLTENGDGDKEKTGVRFLRCPAAMTVMHLAKFLRNKMDVPSKYKVEILYEDEPLKEYYTLMDIAYIYPWRRNGPLPLKYRVQPACKRLTLPTVPTPSEGTNTSGASECESVSDKAPSPATLPATSSSLPSPATPSHGSPSSHGPPATHPTSPTPPSTAAGTTTATNGGTSNCLQTPSSTSRGRKMTVNGAPCPP
B2: the binding result in assay [3] was “no binding”.

B3: in vitro translated Mph2 (protein, UniProt Q9QWH1 1-850)
chain: MENELPVPHTSNRASVTTNTSGTNSSSGCISSSGGGGGSGGRPTAPQISVYSGIPDRQTVQVIQQALHRQPSTAAQYLQQMYAAQQQHLMLQTAALQQQHLSSAQLQSLAAVQQASLVANRQGSTPGSSVSSQAPAQSSSLNLAASPAAAQLINRAQSVNSAAASGLAQQAVLLGNTSSPALTASQAQMYLRAQMLIFTPTATVATVQPELCTGSPARPPTPAQVQNLTLRTQQTPAAAASGPPPTQPVLPSLALKPTPSSSQPLPAPPQGRTMAQGSPAGAKPSGTDNAPETLKAGDGNCNMEGRPGPGRAVPAVATHPLIAPAYAHLQSHQLLPQPPAKHPQPQFVAQQQPQPPRPAPQVQSQPQLASVSPSLALQSSPEDHALPLGSVTQALPLQCSTTHVHKPGNSQQCHLPTLDTGSQNGHPEGGSHPPQRRFQHTSAVILQVQPASPVTPQQCAPDDWKEVVPAEKSVPVARPGPSPHQQAIIPAIPGGLPGPKSPNIQQCPAHETGQGIVHALTDLSSPGMTSGNGNSASSIAGTAPQNGENKPPQAIVKPQILTHVIEGFVIQEGAEPFPVGRSSLLVGNLKKKYAQGFLPEKPPQQDHTTTTDSEMEEPYLQESKEEGTPLKLKCELCGRVDFAYKFKRSKRFCSMACAKRYNVGCTKRVGLFHSDRSKLQKAGTTTHNRRRASKASLPTLTKDTKKQPSGTVPLSVTAALQLAHSQEDSSRCSDNSSYEEPLSPISASSSTSRRRQGQRDLDLPDMHMRDLVGVGHHFLPSEPTKWNVEDVYEFIRSLPGCQEIAEEFRAQEIDGQALLLLKEDHLMSAMNIKLGPALKIYARISMLKDS
Consider B3, for which the binding result in assay [3] is “binds”.

B4: GST-TIPT2 (TATA-binding protein-like factor-interacting protein, isoform 2) (protein, UniProt Q6P926-1 1-205)
chain: MATPLGWSQGGSGSVCLAFDQLRDVIESQEELIHQLRNVMVLQDENFVSKEEFHEIEKKLVEEKAAHAKTKALLAKEEEKLQFALGEVEVLSKQLEKEKMAFEKALSSVKSRVLQESSKKDQLITKCNEIESHIIKQEDILNGKENEIKELQQVISQQKQNFRNHISDFRIQKQQETYMAQVLDQKRKKATGMRRARSRQCSREK
For the molecule B4, the binding entry in assay [3] is “binds”.

B5: in vitro translated TBPL1 (protein, UniProt P62380 1-186)
chain: MDADSDVALDILITNVVCVFRTRCHLNLRKIALEGANVIYKRDVGKVLMKLRKPRITATIWSSGKIICTGATSEEEAKFGARRLARSLQKLGFQVIFTDFKVVNVLAVCNMPFEIRLPEFTKNNRPHASYEPELHPAVCYRIKSLRATLQIFSTGSITVTGPNVKAVATAVEQIYPFVFESRKEIL
In the case of B5, the binding result (in assay [3]; with GST-geminin [4]) was “binds” throughout.
